# Source: PubChem BioAssay (Tox21)
# Where “and” joins values, the source holds several entries; their conditions need not be identical. Identical values can stand only once. This list was built around the results that the source calls inconclusive (neither active nor inactive); the mix of calls is not that of the screen. A potency beside an inconclusive call is a rough fit, not a confirmed value. Where a structure was tested more than once in an assay, its records may differ in their call. Calls of active or inactive are those of the source. The call rests on the fitted dose curve; in most records, active means well fitted curve in the direction sought with a large enough effect in the repeat runs; inconclusive means weak or mixed curves; inactive means no such curve, though single readings can be large; an effect the other way counts as inactive or inconclusive.
# What was measured:
# [1] = qHTS RealTime-Glo MT Cell Viability Assay in HepG2 cells - 32 hour (AID 1224877); further: nearly all actives have a fitted effect of over 55% in size
# Summary of the method: (§1)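 Cell number in HepG2 cultures estimated from NanoLuc luminescence generated by metabolic reduction of a prosubstrate by living cells. The homogeneous, nonlytic format allowed repeated reads at 0, 8, 16, 24, 32 and 40 h of compound exposure.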
# [2] = A CellTox Green Cytotoxicity Assay to monitor cytotoxicity in HepG2 cells - 40 hour (AID 1224879); further: nearly all actives have a fitted effect of over 40% in size
# Summary of the method: (§2)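 Continuous culture of HepG2 cells with a membrane-impermeant DNA dye; rising fluorescence marks dead cells. Compound exposure lasted up to 40 h at 37 C, with reads every 8 h from 0 h.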
# [3] = A CellTox Green Cytotoxicity Assay to monitor cytotoxicity in HEK293 cells - 32 hour (AID 1224881); further: nearly all actives have a fitted effect of over 40% in size
# Summary of the method: (§3)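 Each value comes from one timepoint of a single continuous run in which HEK293 cells with CellTox Green were exposed to compound for up to 40 h at 37 C, dye fluorescence rising with cell death.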
# [4] = A CellTox Green Cytotoxicity Assay to monitor cytotoxicity in HepG2 cells - 32 hour (AID 1224883); further: nearly all actives have a fitted effect of over 50% in size
# Summary of the method: as §2
# [5] = qHTS RealTime-Glo MT Cell Viability Assay in HepG2 cells - 16 hour (AID 1224885); further: nearly all actives have a fitted effect of over 50% in size
# Summary of the method: as §1
# [6] = qHTS RealTime-Glo MT Cell Viability Assay in HEK293 cells - 8 hour (AID 1224887); further: nearly all actives have a fitted effect of over 50% in size
# Summary of the method: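 qHTS format; HEK293 cells with NanoLuc/prosubstrate reagent, 37 C/5% CO2 for 5 h pre-dosing; compounds 23 nL in DMSO; luminescence at each time point reflects viable cells.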
# [7] = qHTS assay to identify small molecule antagonists of the androgen receptor (AR) signaling pathway using the MDA cell line in the presence of 0.5 nM R1881 - cell viability counter screen (AID 1259242); further: nearly all actives have a fitted effect of over 45% in size
# Summary of the method: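 Fluorescence from CellTiter-Fluor, which reports protease activity of live cells, was read 30 min after reagent addition to MDA-kb2 cells that had been incubated 16 hr with compound and 0.5 nM R1881.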
# [8] = A CellTox Green Cytotoxicity Assay to monitor cytotoxicity in HepG2 cells - 24 hour (AID 1224878); further: nearly all actives have a fitted effect of over 45% in size
# Summary of the method: as §2
# [9] = A CellTox Green Cytotoxicity Assay to monitor cytotoxicity in HEK293 cells - 8 hour (AID 1224884); further: nearly all actives have a fitted effect of over 35% in size
# Summary of the method: as §3
# [10] = qHTS RealTime-Glo MT Cell Viability Assay in HEK293 cells - 24 hour (AID 1224886); further: nearly all actives have a fitted effect of over 50% in size
# Summary of the method: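 Homogeneous bioluminescent viability format in HEK293 cells (600 cells/well). Following 5 h at 37 C/5% CO2, 23 nL compound was pintooled; the signal was measured repeatedly during 40 h incubation.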
# [11] = A CellTox Green Cytotoxicity Assay to monitor cytotoxicity in HEK293 cells - 16 hour (AID 1224888); further: nearly all actives have a fitted effect of over 35% in size
# Summary of the method: as §3
# [12] = A CellTox Green Cytotoxicity Assay to monitor cytotoxicity in HepG2 cells - 8 hour (AID 1224890); further: nearly all actives have a fitted effect of over 45% in size
# Summary of the method: as §2
# [13] = A CellTox Green Cytotoxicity Assay to monitor cytotoxicity in HepG2 cells - 0 hour (AID 1224882); further: nearly all actives have a fitted effect of over 35% in size
# Summary of the method: as §2
# [14] = qHTS assay to identify small molecule antagonists of the estrogen receptor alpha (ER-alpha) signaling pathway using the BG1 cell line in the presence of 0.1 nM 17-beta-estradiol - cell viability counter screen (AID 1259241); further: nearly all actives have a fitted effect of over 40% in size
# Summary of the method: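 VM7Luc4E2, 4,000 cells/well, phenol red-free medium + 10% charcoal-stripped FBS; 24 hr plating; cpd + 0.1 nM E2 final, 22 hr 37C/5% CO2; CellTiter-Fluor 30 min, fluorescence.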
# Potency means the concentration at half of the fitted maximal effect; tags describe the fitted curve by direction and shape.
smiles,measurement,setting,value
Cc1ccc(N=CN(C)C=Nc2ccc(C)cc2C)c(C)c1,Potency,[1],"inconclusive: 43.6 µM [cytotoxic, partial curve]"
same,Potency,[2],"inconclusive: 55.2 µM [activator, single point]"
same,Potency,[3],"inconclusive: 55.2 µM [activator, single point] and inconclusive: 54.9 µM [activator, single point]"
same,Potency,[4],"inconclusive: 55.2 µM [activator, single point]"
same,Potency,[5],"inconclusive: 48.9 µM [cytotoxic, partial curve, poor fit]"
same,Potency,[6],"inconclusive: 55.2 µM [cytotoxic, single point] and inconclusive: 38.9 µM [cytotoxic, partial curve]"
same,Potency,[7],"inconclusive: 68.9 µM [cytotoxic, partial curve, poor fit]"
CCCCNC(=O)OCC#CI,Potency,[8],"inconclusive: 61.4 µM [activator, single point] and inconclusive: 54.9 µM [activator, single point]"
same,Potency,[2],"inconclusive: 54.7 µM [activator, single point]"
same,Potency,[3],"inconclusive: 54.7 µM [activator, single point]"
same,Potency,[4],"inconclusive: 54.7 µM [activator, single point]"
same,Potency,[9],"inconclusive: 54.9 µM [activator, single point]"
same,Potency,[10],active: 21.8 µM and active: 21.9 µM
same,Potency,[6],"inconclusive: 21.8 µM [cytotoxic, partial curve]"
same,Potency,[11],"inconclusive: 54.9 µM [activator, single point]"
same,Potency,[12],"inconclusive: 54.9 µM [activator, single point]"
same,Potency,[7],"active: 60.8 µM and inconclusive: 61.1 µM [cytotoxic, single point]"
C=CCCl,Potency,[8],inactive
CCCCOC(=O)CCC(=O)OCCCC,Potency,[8],"inconclusive: 54.9 µM [activator, partial curve, poor fit]"
same,Potency,[2],"inconclusive: 49 µM [activator, partial curve]"
same,Potency,[4],"inconclusive: 49 µM [activator, partial curve]"
O=NN1CCCC1,Potency,[8],"inconclusive: 57.5 µM [activator, single point] and inconclusive: 21.9 µM [activator, partial curve, poor fit]"
same,Potency,[2],active: 57.5 µM
same,Potency,[3],inactive
same,Potency,[13],"inconclusive: 24.5 µM [activator, partial curve]"
same,Potency,[9],active: 21.9 µM
same,Potency,[10],"inconclusive: 22.9 µM [rising, single point]"
same,Potency,[12],active: 38.9 µM
same,Potency,[14],"inconclusive: 22.7 µM [cytotoxic, partial curve]"
same,Potency,[7],"inconclusive: 57 µM [cytotoxic, partial curve]"
O=[N+]([O-])c1cccc2cccnc12,Potency,[8],inactive
ClCc1ccccc1CCl,Potency,[8],"inconclusive: 61.6 µM [activator, single point]"
same,Potency,[2],"inconclusive: 54.9 µM [activator, single point]"
same,Potency,[3],"inconclusive: 49 µM [activator, partial curve, poor fit]"
same,Potency,[10],"inconclusive: 54.9 µM [cytotoxic, single point]"
COC(C)(C)C,Potency,[8],inactive
c1ccc(N=NNc2ccccc2)cc1,Potency,[8],"inconclusive: 56.8 µM [activator, single point] and inconclusive: 49 µM [activator, single point]"
same,Potency,[2],"inconclusive: 56.8 µM [activator, single point] and active: 49 µM"
same,Potency,[3],active: 50.7 µM and active: 43.6 µM
same,Potency,[4],"inconclusive: 56.8 µM [activator, single point] and inconclusive: 49 µM [activator, single point]"
same,Potency,[5],"inconclusive: 50.7 µM [cytotoxic, partial curve, poor fit] and inconclusive: 61.6 µM [cytotoxic, partial curve, poor fit]"
same,Potency,[10],"inconclusive: 56.8 µM [cytotoxic, single point]"
same,Potency,[11],"inconclusive: 50.7 µM [activator, partial curve, poor fit]"
same,Potency,[14],"inconclusive: 31.7 µM [cytotoxic, partial curve]"
CC1(C)CC/C(=C/c2ccc(Cl)cc2)C1(O)Cn1cncn1 (stereo not given),Potency,[8],"inconclusive: 21.7 µM [activator, single point]"
same,Potency,[2],"inconclusive: 21.7 µM [activator, single point]"
same,Potency,[3],"inconclusive: 61.3 µM [activator, single point]"
same,Potency,[4],"inconclusive: 54.6 µM [activator, partial curve, poor fit]"
same,Potency,[6],"inconclusive: 21.7 µM [cytotoxic, partial curve]"
same,Potency,[11],"inconclusive: 48.7 µM [activator, partial curve, poor fit]"
same,Potency,[14],"inconclusive: 68.2 µM [cytotoxic, single point]"
COC(=O)Nc1cccc(OC(=O)Nc2cccc(C)c2)c1,Potency,[8],"inconclusive: 54.9 µM [activator, single point]"
same,Potency,[2],"active: 49 µM and inconclusive: 54.9 µM [activator, single point]"
same,Potency,[4],"inconclusive: 61.7 µM [activator, single point]"
same,Potency,[9],"inconclusive: 1.74 µM [activator, single point]"
